In publication PMC9911399, “Two distinct binding modes provide the RNA-binding protein RbFox with extraordinary sequence specificity”:
Residue numbers refer to the chain shown, from its start. The list shows a part of the results.

T1: RBFOX1 RRM RbFoxmut (Fox-RRM*) (Homo sapiens, UniProt Q9NWB1 109-208, R118D;E147R;N151S;E152T)
T1 sequence: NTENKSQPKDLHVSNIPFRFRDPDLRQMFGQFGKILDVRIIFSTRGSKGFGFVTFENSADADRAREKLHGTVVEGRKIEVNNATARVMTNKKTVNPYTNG

B1: AGUUAGU (DNA:RNA)
RNA: GGGAGACCGGAAUUCAGAUUGUCCAGUUAGUUUAAAUCCCGUCGUAGCCACCA
DNA 1: CAATCTGAATTCCGGTCTCCC
DNA 2: TGGTGGCTACGACGGGATT
B2: UGAGGCG (DNA:RNA)
RNA: B1 RNA with A25U, U27A, U28G, A29G, G30C, U31G
DNA 1: CAATCTGAATTCCGGTCTCCC
DNA 2: TGGTGGCTACGACGGGATT
B3: UACGCUG (DNA:RNA)
RNA: GGGAGACCGGAAUUCAGAUUGUCCUACGCUGUUAAAUCCCGUCGUAGCCACCA
DNA 1: CAATCTGAATTCCGGTCTCCC
DNA 2: TGGTGGCTACGACGGGATT
B4: GCCGGAU (DNA:RNA)
RNA: B3 RNA with U25G, A26C, C29G, U30A, G31U
DNA 1: CAATCTGAATTCCGGTCTCCC
DNA 2: TGGTGGCTACGACGGGATT
B5: AAAGGCU (DNA:RNA)
RNA: B1 RNA with G26A, U27A, U28G, A29G, G30C
DNA 1: CAATCTGAATTCCGGTCTCCC
DNA 2: TGGTGGCTACGACGGGATT
B6: AUGAAGG (DNA:RNA)
RNA: B1 RNA with G26U, U27G, U28A, U31G
DNA 1: CAATCTGAATTCCGGTCTCCC
DNA 2: TGGTGGCTACGACGGGATT
B7: GUUAGCC (DNA:RNA)
RNA: B1 RNA with A25G, G26U, U28A, A29G, G30C, U31C
DNA 1: CAATCTGAATTCCGGTCTCCC
DNA 2: TGGTGGCTACGACGGGATT
B8: ACUGUUG (DNA:RNA)
RNA: B3 RNA with U25A, A26C, C27U, C29U
DNA 1: CAATCTGAATTCCGGTCTCCC
DNA 2: TGGTGGCTACGACGGGATT
B9: UACUUAA (DNA:RNA)
RNA: B3 RNA with G28U, C29U, U30A, G31A
DNA 1: CAATCTGAATTCCGGTCTCCC
DNA 2: TGGTGGCTACGACGGGATT

Target: T1, RBFOX1 RRM RbFoxmut (Fox-RRM*)
Test: EMSA; HiTS-Eq, 1 nM pool, 10 min; buffer printed only for the single-RNA assays: 10 mM Tris pH 7.5, 150 mM NaCl, 3.4 mM EDTA, 0.001% NP-40, 30 C
Conditions: tags: His6 N-terminal (pET28a); label: 5' 32P
How it was run: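 A pool of RNA with 7 randomized nucleotides, 5′-radiolabelled and with DNA-annealed flanks, was equilibrated at 1 nM for 10 min in 50 µL with purified RbFox RRM, wild type or mutant, across increasing protein concentrations. Free RNA was separated by 8% native PAGE, excised, reverse-transcribed, barcoded by PCR and sequenced. Relative association constants were obtained from read-count changes of each RNA species versus the control reaction and normalised to the cognate motif.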

| Binder | binding signal |
| --- | --- |
| B1 | 0.126 KA relative to UGCAUGU |
| B2 | 0.143 KA relative to UGCAUGU |
| B3 | 0.0628 KA relative to UGCAUGU |
| B4 | 0.0694 KA relative to UGCAUGU |
| B5 | 0.0786 KA relative to UGCAUGU |
| B6 | 0.0739 KA relative to UGCAUGU |
| B7 | 0.124 KA relative to UGCAUGU |
| B8 | 0.149 KA relative to UGCAUGU |
| B9 | 0.117 KA relative to UGCAUGU |
